According to article PMC7819943, “Rice protein-binding microarrays: a tool to detect cis-acting elements near promoter regions in rice”:
This is one part of the list.

Each sequence was assayed against T1, OsWOX13 (Oryza sativa, UniProt Q5QMM3 1-267) (assay: protein-binding microarray (RPBM); PBS, 2% BSA, 51.3 ng/ul salmon testes DNA, 50 uM zinc acetate, 200 nM TF, 25 C, 1 h; high values mean tight binding). Details: protein: recombinant; tags: N-terminal polyhistidine and DsRed monomer fusion (pET32a); label: CyDye5-dUTP incorporated in the synthesized complementary strand; 3' TTTTT single-stranded linker to array surface; dsDNA, one strand shown.
T1 sequence: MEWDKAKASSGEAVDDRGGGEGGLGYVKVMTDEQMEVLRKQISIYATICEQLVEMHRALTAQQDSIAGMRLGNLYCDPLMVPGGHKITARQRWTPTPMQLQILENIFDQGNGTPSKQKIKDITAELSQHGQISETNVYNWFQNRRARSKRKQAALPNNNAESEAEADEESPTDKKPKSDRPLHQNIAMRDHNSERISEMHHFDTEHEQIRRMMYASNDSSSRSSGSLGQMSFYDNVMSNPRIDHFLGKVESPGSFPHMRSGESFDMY
Summary of the method: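 Ni–NTA purification followed expression in E. coli BL21-CodonPlus of transcription factors fused N-terminally to a polyhistidine tag and DsRed. At 200 nM in PBS with 2% BSA, salmon testes DNA and 50 µM zinc acetate, the protein was incubated for 1 h at 25 °C with a custom Agilent array that had been primer-extended with Cy5-dUTP and blocked with 2% BSA. After washing, the array was read on an Axon 4000B scanner. The binding signal is per-feature fluorescence intensity in arbitrary units.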

Row | Sequence | binding signal
1 | TGGTCCTAATTTATGTAGCCTTGATCTGTAGCATCATCTCCGGAGTCACCTAGTGCAG | 6280 fluorescence intensity (a.u.)
2 | AAAGGAAAAGAAAATAATTGACGACGTTGAGTCGTTGACCCGGAGTCACCTAGTGCAG | 7270 fluorescence intensity (a.u.)
3 | ATAATAATTATATCATCCAGGCTAGTACGAACTATAGTAGCGGAGTCACCTAGTGCAG | 18300 fluorescence intensity (a.u.)
4 | TCGATTGATTGATTGATTCCTTGGAGAAGAAGAAGGAGGACGGAGTCACCTAGTGCAG | 36400 fluorescence intensity (a.u.)
5 | AGAGATAATTTGACCGGTCACCGCACGAAGAAAAGAGAAACGGAGTCACCTAGTGCAG | 4610 fluorescence intensity (a.u.)
6 | ATATTGTGATTGGTTAAGAAATAAAGATACGTTGAATGATCGGAGTCACCTAGTGCAG | 39200 fluorescence intensity (a.u.)
7 | CGCCAGCAGAATTAACAATCAAGGATTGCCTTTTCTTCCACGGAGTCACCTAGTGCAG | 7160 fluorescence intensity (a.u.)
8 | ATCTATAATTTTCTAATAATTTAACTAAAATATATGTAGTCGGAGTCACCTAGTGCAG | 22400 fluorescence intensity (a.u.)
9 | GCATTATTGTCCTAATTAATTACATGAATAAATGAAAAGACGGAGTCACCTAGTGCAG | 20400 fluorescence intensity (a.u.)
10 | AGCAAATTAATATGTGAATGATCACTTCTCTGAGGCCGGCCGGAGTCACCTAGTGCAG | 16400 fluorescence intensity (a.u.)
11 | AACTGATAGGTTACCCCACAAGTCGCGCACCGCACGGCACCGGAGTCACCTAGTGCAG | 5240 fluorescence intensity (a.u.)
12 | ATTAATCATTTATTAGCAAATGTTTACTGTAGCACAACATCGGAGTCACCTAGTGCAG | 8360 fluorescence intensity (a.u.)
13 | ATTTTGATAGTATTGATATCTCATTTGGAATCTTTATTGGCGGAGTCACCTAGTGCAG | 3820 fluorescence intensity (a.u.)
14 | CAATAACAGACATTCTAATATTTATTCTCTACTAGAGTATCGGAGTCACCTAGTGCAG | 8380 fluorescence intensity (a.u.)
15 | AACATGTTCTGCTGATTGTTTGGTCATCCTATACTCATTACGGAGTCACCTAGTGCAG | 8660 fluorescence intensity (a.u.)
16 | AACCAAATTTCTAATTTTAGCGCGAAGACCCACCTTATAGCGGAGTCACCTAGTGCAG | 8570 fluorescence intensity (a.u.)
17 | TAATAATTTTCACCAAGTGTGAATGGCTTGTCGACACGTCCGGAGTCACCTAGTGCAG | 5180 fluorescence intensity (a.u.)
18 | CGTGGCCATCAATTTGATCCCGTCACGTCTCCGCCCTCTTCGGAGTCACCTAGTGCAG | 4050 fluorescence intensity (a.u.)
19 | TCAGCCCTAATTAAGGAGTCTTAATTTTAGGTTGGCTACACGGAGTCACCTAGTGCAG | 18700 fluorescence intensity (a.u.)
20 | TCTTGTTAAAATTTGATTAGAGGAGATGATCAATTCCTTCCGGAGTCACCTAGTGCAG | 13900 fluorescence intensity (a.u.)
21 | TTCACAAATTTTGATGCGATGATTAGCTAAGGCATGTTCGCGGAGTCACCTAGTGCAG | 23500 fluorescence intensity (a.u.)
22 | ATCTTCAACTTTAAATTTAAAACTGATTTTGAACTTTCTTCGGAGTCACCTAGTGCAG | 7840 fluorescence intensity (a.u.)
23 | GGAGATGGAAATAGCCAATCACAGGAGAGTGAAGGACTAGCGGAGTCACCTAGTGCAG | 22900 fluorescence intensity (a.u.)
24 | TAATTAATTCATTATTGGCAAATGTTTACCATAGCACCACCGGAGTCACCTAGTGCAG | 11800 fluorescence intensity (a.u.)
25 | TTGATTAATTTTGAAGCATATCCCCAGTTATTAATTCCGCCGGAGTCACCTAGTGCAG | 29100 fluorescence intensity (a.u.)
26 | CCCTTAATCGAGATATCACTATCCCAATTTATGTGTGACCCGGAGTCACCTAGTGCAG | 6000 fluorescence intensity (a.u.)
27 | AGCCTTAATTTGTTGGATCATTTCCGATTATTTTATTTATCGGAGTCACCTAGTGCAG | 12900 fluorescence intensity (a.u.)

Row | Sequence | binding signal
28 | AATTTGAAAATTCCAAATTTGTGATTGTGCTTCTTGTATGCGGAGTCACCTAGTGCAG | 5280 fluorescence intensity (a.u.)
29 | ACTGCTAAATGATGTGTTTTGTGCGAAAACTTTCTATATGCGGAGTCACCTAGTGCAG | 3640 fluorescence intensity (a.u.)
30 | TCTACTTGCAAGGTGTAATTAGTTACTGATGGATACGTATCGGAGTCACCTAGTGCAG | 5150 fluorescence intensity (a.u.)
31 | TATGATTTGTCTACGTTACAAACATAAACCTTTTCTTCTCCGGAGTCACCTAGTGCAG | 11400 fluorescence intensity (a.u.)
32 | CAACAGATTGGGCCCGGCCTATGCCGAATGGGCCCGTCAGCGGAGTCACCTAGTGCAG | 4460 fluorescence intensity (a.u.)
33 | AATTAAATTAACTTATTAACTAATGGCCTCTTCTTCTTCTCGGAGTCACCTAGTGCAG | 36000 fluorescence intensity (a.u.)
34 | AGTATGATGGAACTGATCAATGCCTGATCCATCGATATGCCGGAGTCACCTAGTGCAG | 4760 fluorescence intensity (a.u.)
35 | TCCACTTGGGTGATTAGAATCTGTCTTCCCTGTTTTAAGCCGGAGTCACCTAGTGCAG | 7670 fluorescence intensity (a.u.)
36 | CATATAATCAATTGTATCAAGTGATCCAACACACTAGGTCCGGAGTCACCTAGTGCAG | 12800 fluorescence intensity (a.u.)
37 | ATTCATCAATCAGTCTGGGCCAGAATGCTTCTAGCTGCGACGGAGTCACCTAGTGCAG | 18600 fluorescence intensity (a.u.)
38 | TGAAATTGATATATGCCTTGACATTTACTATTTTATTTCCCGGAGTCACCTAGTGCAG | 14800 fluorescence intensity (a.u.)
39 | GCTTGATTTCAGCTGATATACTCGGTCTTAAAAGACTAGCCGGAGTCACCTAGTGCAG | 23400 fluorescence intensity (a.u.)
40 | AGTGACATAAATGAAGTGAACCACCCAACCTTCTTGCTCGCGGAGTCACCTAGTGCAG | 6740 fluorescence intensity (a.u.)
41 | CTAGTAATAACACTGACATCAATTAGCAATTTAGCATCCGCGGAGTCACCTAGTGCAG | 13200 fluorescence intensity (a.u.)
42 | ATCGAATGATTGGCGATGATTGGGTTGAGTTCGTTGCAACCGGAGTCACCTAGTGCAG | 49800 fluorescence intensity (a.u.)
43 | GTATTTGCATGATTGCTCGATCGAGATTATATTACCCTCTCGGAGTCACCTAGTGCAG | 16800 fluorescence intensity (a.u.)
44 | GACAAAATTTAAACTATAGAAGTTGATTTTATTTAGGACGCGGAGTCACCTAGTGCAG | 5130 fluorescence intensity (a.u.)
45 | GAGGGCAAGGCCCAGGGAAGCATATCTTGATAGTCGATATCGGAGTCACCTAGTGCAG | 65500 fluorescence intensity (a.u.)
46 | ACTTCAATTTATTGCGGATGTGTGCATCTTCCACAGGTATCGGAGTCACCTAGTGCAG | 6530 fluorescence intensity (a.u.)
47 | ATTTAACTGGTAATAAATTTTAATAATTTCAGTCCATAATCGGAGTCACCTAGTGCAG | 37700 fluorescence intensity (a.u.)
48 | TATTATGATTGTTTGTTTAATAATAAATCTAGTAACATCACGGAGTCACCTAGTGCAG | 21500 fluorescence intensity (a.u.)
49 | TCTAGACTGGACTACCTTGTTTGACTAGCTAGCTACTAAGCGGAGTCACCTAGTGCAG | 4110 fluorescence intensity (a.u.)
50 | TGAAAATATATTCAATTATTGATTCGATAAAACTAATTTACGGAGTCACCTAGTGCAG | 6640 fluorescence intensity (a.u.)
51 | TTTGATTATTTGATAACTTGACCAACTTTTATTCACTCAGCGGAGTCACCTAGTGCAG | 39200 fluorescence intensity (a.u.)
52 | ACTTAACTAATTATACGCTAATGACACATCTCACGCCTCCCGGAGTCACCTAGTGCAG | 45400 fluorescence intensity (a.u.)
53 | GACAAACTGGTTTGTGTGATTGGTTATCCAGTGACAATCTCGGAGTCACCTAGTGCAG | 42900 fluorescence intensity (a.u.)
54 | TTTATAAATTATACTTTATTTTATATAAAATGAGCTAATTCGGAGTCACCTAGTGCAG | 7020 fluorescence intensity (a.u.)
